According to the supplement of paper PMC11417369:
± gives the standard deviation of the averaged measurements. Some of the results follow.

System: PfAP2-G AP2 domain (GST-tagged)
Test: gcPBM binding intensity (ln(normalized median fluorescence intensity)); higher = stronger DNA binding
Summary of the method: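 Probes on an Agilent 4 × 180k array were primer-extended, double-stranded and 36 bp long, taken from intergenic genomic regions, with negative controls added. GST-tagged P. falciparum DNA-binding domains from E. coli, about 25 μg on average, were applied to the array for 1 h in 1× PBS containing 1% milk, 0.2 mg/ml BSA, 0.5% salmon testes DNA and 0.03% Triton X-100. Binding intensity, obtained after Alexa488 anti-GST antibody detection and a 488 nm scan, is the highest Masliner-normalised natural-log median intensity across replicate spots of either probe orientation.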

Sequence	gcPBM binding intensity (ln)
TATATTTAAATATATACACACATTATCATTTTCATA [CACACA_site1708]	9.98 ± 0.15
TGGTTATAATTGTACGCATGTAATTACATATTCTCT [TGCATGCA_site599]	11.5 ± 0.85
AATATGCCTCCCCAAAAAAAATATATATATATTTAT [GTGCAC_negctrl_site716]	10.185 ± 0.007
AAATATGTTTCAAAAAGTACATTTCTATCTTTTTTT [XGTACX_site7178]	11.1 ± 0.69
TGATAAAATATTAAATTATTTCTTTATTTAAAGATT [CACACA_negctrl_site370]	9.35 ± 0.13
TTTTTTACTATATCAATTACAAAACAAAAAAAAAAA [GTGCAC_negctrl_site683]	9.86 ± 0.34
TATCATTTGGTCTTTTACTTTTTCTGTTTTTTTTTT [CACACA_negctrl_site976]	10.31 ± 0.042
AATGATTGATTTTATTGTACGTACTCGGAATATGGT [XGTACX_site4976]	11.8 ± 1
TATAGATAAATTATTTGTACTTATAAAATTATTATA [XGTACX_site2870]	11 ± 0.8
TAGTTTTCTTAAAGATGTACTTATTAAAAATAAACT [XGTACX_site1001]	11.3 ± 1.1
GAATTTTAAATAAACATATAAACAGAAAAAAAAAAA [TGCATGCA_negctrl_site149]	9.84 ± 0.028
GTTATATTTAAAATAGTGCAATAAAAATAATAATAT	10.3 ± 0.26
CCTTTATAATTGGAAACACACATATAAAGTATATAT [CACACA_site3900]	10.04 ± 0.049
CACAAATATACAAATACACACAAATATACGCATATA [CACACA_site2384]	10.15 ± 0.021
TTATGTATTTTAAATGGTTTTATTATAAAGTTTAAT [CACACA_negctrl_site1470]	9.865 ± 0.007
TTATCTTACATATATCATTAAATCATATAACAAAAA [XGTACX_negctrl_site517]	9.68 ± 0.042
AACCTCATGGACATATGTACACATATACAATTATTT [XGTACX_site6533]	11.4 ± 0.77
AAATATACATATATATGTACATATAAATATATTTTA [XGTACX_site5266]	11.1 ± 0.69
TACATAACTTTAATCACACACAAACAAACACATACA [CACACA_site6235]	10.3 ± 0.38
ATATAATATATATACAAACACACAATTGTGTCCACA [CACACA_site1748]	11.1 ± 0.73
AAAATACATGGACACACACACACACCGATATATATA [CACACA_site5885]	11 ± 0.68
GGATAGATCATTTACACACACAAAAAAAAAAAAAAA [CACACA_site2139]	9.97 ± 0.51

Sequence	gcPBM binding intensity (ln)
ATAATATATTATTATAGTACTTTATTTTATTTTATG [XGTACX_site2387]	11.1 ± 0.64
AATATATATATACATACATGCATACATATATATATA [TGCATGCA_site784]	10.1 ± 0.49
CAAATATATGTTTTCACACACAAAAGAAATGAAACC [CACACA_site2162]	10.12 ± 0.035
AAAAAAAATAAAATGAATAAATAAGAATTACATATT [CACACA_negctrl_site863]	9.41 ± 0.35
TAAGGAAAAAGAAAAAGTACATTATATAATAAATAG [XGTACX_site3282]	11.2 ± 0.83
AAAAAGAAGATATATACACACCAAAAAAAAAAAAAA [CACACA_site7471]	9.77 ± 0.3
GTTTATAACTATGTGTGTACACATTAATCGTTTTTC [XGTACX_site4364]	11.6 ± 1
ATATGATGTAAAAGCACACATATATATATATATATA [CACACA_site4018]	10.1 ± 0.35
TACTATAAAATGGAATGTACACATAAATATATCTAA [XGTACX_site6137]	11.3 ± 0.72
AAATCGTGTACATTGACACACATAATTTTTTTTATA [CACACA_site2463]	11.3 ± 0.83
CACATACACATACACATACACACGCATAGAAACATA [CACACA_site2136]	10.5 ± 0.28
TTGTATAAATATGTATGTATATAATATATGTAAAGA [TGCATGCA_negctrl_site93]	10.02 ± 0.092
TATTAATTTTTATTATGTACATAAATAATTTATATT [XGTACX_site5456]	11.3 ± 0.74
AATATATTTATATAGTGTACATTTTTTATATATGTA [XGTACX_site8142]	11.3 ± 0.78
ATATAACGAATAATTACACACTATAAAAAAAGATCT [CACACA_site2862]	9.82 ± 0.057
TATAACCGAATGTGTACACAAAATAATGTTATATAT [CACACA_site5627]	11.6 ± 0.88
ATAATACGAATTTGTAGTACATTTATAATAACATGA [XGTACX_site2614]	11.4 ± 0.83
AAGCATATTATAAACACACACTGTATAAAGATATAT [CACACA_site6277]	9.91
AAGTATAACCTTTATAATAATGACATGACCGATTTT [CACACA_negctrl_site395]	10.07 ± 0.028
ACCCATAAGATAATTACACACAATACATCCCTATAT [CACACA_site5262]	10 ± 0.028
TTTTTTTTTTTTTGTTGTACATTAAATATATTATTA [XGTACX_site7254]	11.2 ± 0.86
TAAAAAACTTCGTGTTCACACATGTACTATATTATT [CACACA_site4796]	11.2 ± 0.89

Sequence	gcPBM binding intensity (ln)
AGGACTAATATTTGAACACACATATAACATATACAT [CACACA_site7803]	9.95 ± 0.085
TTTTAATAACCAATCCGTACATATAATCTTTATATT [XGTACX_site536]	11 ± 0.61
TGGAAAAATAGGCACACACACATATATACATATATA [CACACA_site1297]	10.2 ± 0.23
TAAAAGTTATAAGAGTGTACGTATATTTATATATCA [XGTACX_site2972]	11.5 ± 1
TTATTATATTCTCCTTCACACACAAAAATATTTCAT [CACACA_site8738]	10.2 ± 0.14
TGAAAAATTACAAAAATAATAAAATGAAATAATAAA [GTGCAC_negctrl_site53]	9.81 ± 0.085
TACTGTTTAAAATATAAACACACATTGTTTGCTTTA [CACACA_site8358]	9.61 ± 0.38
AAAAGGAAAATTTTCTTAGTAACTGCATTAAGAGAT [GTGCAC_negctrl_site675]	9.85 ± 0.2
CTTTTAAATTATTTTTGTACATAATTATATATATAT [XGTACX_site4128]	10.9 ± 0.49
AACTATAAATATAAATGTACACATATGTAATATATA [XGTACX_site6085]	11.3 ± 0.64
TTTATTATTTTTTGTAGTACTTTATATAAAAGTTCT [XGTACX_site4494]	11.3 ± 0.77
ATACACTTTTATATATCAATACATTATGTATTAAGT [CACACA_negctrl_site421]	10 ± 0.11
TATTTACATGTAAAAGGTACACACATTATATATACA [XGTACX_site2157]	11.2 ± 0.57
TAAAATAAAACAAACACACACACACCCCCACAAAAA [CACACA_site3850]	11.3 ± 0.7
ATGTATATATATATATGTACTAATTAGTAATTTACG [XGTACX_site6276]	11 ± 0.62
AAAACAAACCCATTTACACACATAAATAAATCAATT [CACACA_site6126]	9.97 ± 0.028
TCCTTTTTTTTGTAATGTACTTAGTTTGGTTATATG [XGTACX_site8208]	11 ± 0.55
CCTCTTTATTTTAATTGTACATTTTTGTAGGTTTTT [XGTACX_site7130]	10.9 ± 0.61
TTTTTATTACTTCTCTGTACTCAGGAAAATAAATAT [XGTACX_site2092]	11.4 ± 0.99
TGAATGTAAGAAAATACACACTAGTATAGTAACACC [CACACA_site5131]	10.2 ± 0.52
AAATATATAATACATATGTAATATGCATATATATAT [GTGCAC_negctrl_site450]	9.68 ± 0.26
TTGATTATAATTAGTACACACAAAATACATGCGGGG [CACACA_site2277]	11.6 ± 0.9

Sequence	gcPBM binding intensity (ln)
AATATTCATATGCAGGTGCATTAATTTTTATTAATT	9.795 ± 0.078
TTCCAACCATAGTATTCACACATTGTTTTATTCCAT [CACACA_site4927]	10.03 ± 0.049
TGTTTTTTATTTAATTGTACGAATTAAAAAAAATAA [XGTACX_site3009]	11 ± 0.82
TACATACATACATACACACATACATATATATATATA [CACACA_site1387]	10.5 ± 0.35
TCTTTTATTAGTAAAAGTACTTATATAAATATTATA [XGTACX_site5099]	11.2 ± 0.69
ATAATATAATAAACGTGTACACAATTAAATTATTAT [XGTACX_site3491]	11.8 ± 0.76
TTTCGTAAACAAATTTGTACGTACAAATTTATAAAT [XGTACX_site8175]	11.7 ± 1.1
TTTTTACTAATAAGATGTACATATATCCTAAGCATA [XGTACX_site251]	11.2 ± 0.67
TAGGGATTATACCACACACACATACCCATAAATATA [CACACA_site5719]	10.3 ± 0.22
ATAGACAGCGCACAAACACACAAACACGCACGCACA [CACACA_site6349]	10.3 ± 0.26
AATACTCTATTTTATAGTACATATATTATTAATCAC [XGTACX_site6622]	11.1 ± 0.68
GAAAAAAAAAAAAATACACACAAATTGGTATATAAT [CACACA_site4369]	9.805 ± 0.092
TATCAAATCCAAAGGGGTACATTTTGTTGTCCTAAT [XGTACX_site5575]	11.5 ± 0.95
TAGCTCGTTCGGAGCACACACATATAAATAAATATA [CACACA_site7002]	10.1 ± 0.16
AAAATTTATGTAAAATGTACATACATAAATAAAGAT [XGTACX_site4339]	11.2 ± 0.64
TTTGTAAAATAATATCTTTCATGTCCTTACTAATTA [GTGCAC_negctrl_site145]	10.5 ± 0.42
TATTTATTTAAAGGCACACATATTTTTATACTTTCT [CACACA_site3163]	10.2 ± 0.15
ATTATATATATATATAAACACACATAAATATAAATA [CACACA_site8291]	10 ± 0.28
TATTAACAAAATTTTTAACACACAAAAAAAAAAAAA [CACACA_site8542]	9.65 ± 0.31
CATAATATATTTTATGCATGCAAAGCAACCTTTTGA [TGCATGCA_site715]	9.89 ± 0.057
TTTTTTGTTATATTTGTGCGCAAAAATTGCTGCTTG	10.4 ± 0.31
ATAAATATATTTCACGCACACACACCCCAAATAAAT [CACACA_site9272]	10.6 ± 0.34
